Results on 1 molecule are retold here after patent US20260041765A1 (SHANDONG SIMCERE BIOPHARMACEUTICAL, published 2026).

This experiment has as its target T1, mouse TIGIT protein (mouse, UniProt P86176 29-148, limits assumed).
T1 construct: Soluble analyte in the BIAcore kinetics of 1.4; also called mTIGIT
T1 sequence (looked up): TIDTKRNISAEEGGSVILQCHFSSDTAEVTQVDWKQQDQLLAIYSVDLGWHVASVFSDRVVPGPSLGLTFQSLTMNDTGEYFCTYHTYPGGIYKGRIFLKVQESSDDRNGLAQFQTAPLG
Briefly: SPR (BIAcore), antibody captured on Protein A chip. The protocol: A Protein A chip was adopted in this experiment, and the time required for the chip to capture the diluted antibodies was measured by manual run so that the saturated antigen binding Rmax was 50 RU. The human, cynomolgus monkey, and mouse TIGIT and PVRIG proteins were diluted in gradient to 20, 10, 5, 2.5, and 1.25 nM. The affinity of the antibodies for the antigens was determined using multi-cycle kinetics. In each cycle, after the antibodies were injected, gradient concentrations of the human, cynomolgus monkey, and mouse TIGIT and PVRIG proteins were injected to ensure that the antigens and the antibodies were bound and dissociated. After each cycle, the Protein A chip was regenerated using Glycine pH 1.5 (to remove proteins on the chip). BIAcore T200 analysis software was used to fit the affinity KD of the antibodies for the antigens.
In general terms: In SPR one partner is held on a chip, and binding of the other changes the refractive index at the surface.

B1: LC-BsAb-002 (bispecific antibody)
heavy: EVQLVESGGGLVQPGGSLRLSCAASGFTFSYYDMSWVRQAPGKGLEWVSTINSDGGRTSYVDSVKGRFTISRDNSKNTLYLQMNSLRAEDTAVYYCVEGDPHNFGLESLSLRDFGSWGQGTMVTVSSGGGGSGGGGSGGGGSGGGGSEVQLQESGPGLVKPSETLSLTCAVSGYSITSDSWNWIRQPPGKKLEYIGYISYSGNTYYNPSLKSRVTISRDTSKNQFSLKLSSVTAADTAVYYCARLDFSNYGGAVDYWGQGTTVTVSS[human IgG1 constant region not written out]
light: DIVMTQSPDSLAVSLGERATINCKASQNVRTAVAWYQQKPGQSPKLMIYSASYRYTGVPDRFSGSGSGTDFTLTISSLQAEDVAVYYCQQYYTTPWTFGGGTKVEIKRTVAAPSVFIFPPSDEQLKSGTASVVCLLNNFYPREAKVQWKVDNALQSGNSQESVTEQDSKDSTYSLSSTLTLSKADYEKHKVYACEVTHQGLSSPVTKSFNRGEC
notes: Anti-PVRIG VHH joined to the N-terminus of the heavy chains of the anti-TIGIT antibody; also called PVRIG/TIGIT bispecific antibody; humanized anti-PVRIG×TIGIT bispecific antibody
With B1, the binding result is “no binding (tested: 20 nM (highest concentration tested))”.
